This is one part of the list. Most values come without repeats; read them as rough.
Assays:
Test in all cases: cell count relative to DMSO control; melanoma cells; higher = more viable cells
Settings in all cases: library dose: standard library concentration; 72 h; first compound 2 µM
G361 = tested on: G361
IPC-298 = tested on: IPC-298
IST-MEL1 = tested on: IST-MEL1
LB2518-MEL = tested on: LB2518-MEL
LOXIMVI = tested on: LOXIMVI
MEL-HO = tested on: MEL-HO
MZ2-MEL = tested on: MZ2-MEL
MeWo = tested on: MeWo
RPMI7951 = tested on: RPMI7951
RVH-421 = tested on: RVH-421
SkMel28 = tested on: SkMel28
SkMel2 = tested on: SkMel2
SkMel30 = tested on: SkMel30
SkMel5 = tested on: SkMel5
UACC257 = tested on: UACC257
UACC62 = tested on: UACC62
WM115 = tested on: WM115
WM1716 = tested on: WM1716
WM1745 = tested on: WM1745
WM3526 = tested on: WM3526
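Note: cells treated in 1,536-well plates, then fixed and DAPI-stained, with nuclei counted from automated high-throughput microscope images.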

SMILES | cell count (G361) [%] | cell count (IPC-298) [%] | cell count (IST-MEL1) [%] | cell count (LB2518-MEL) [%] | cell count (LOXIMVI) [%] | cell count (MEL-HO) [%] | cell count (MZ2-MEL) [%] | cell count (MeWo) [%] | cell count (RPMI7951) [%] | cell count (RVH-421) [%] | cell count (SkMel28) [%] | cell count (SkMel2) [%] | cell count (SkMel30) [%] | cell count (SkMel5) [%] | cell count (UACC257) [%] | cell count (UACC62) [%] | cell count (WM115) [%] | cell count (WM1716) [%] | cell count (WM1745) [%] | cell count (WM3526) [%]
C[C@@H](N)c1ccc(C(=O)Nc2ccnc3[nH]ccc23)cc1 + NC(=O)c1ccc(N(C(N)=O)c2c(F)cccc2F)nc1-c1ccc(F)cc1F [VX702] (partner dose 2 µM) | 103 | 82.5 | 99.6 | 151 | 136 | 70.8 | 56 | 73.7 | 68.9 | 41.9 | 98.2 | 99.1 | 81.3 | 68.2 | 77.7 | 76.5 | 97.5 | 82.5 | 74.9 | 96
C[C@@H](N)c1ccc(C(=O)Nc2ccnc3[nH]ccc23)cc1 + Clc1ccc(Nc2nnc(Cc3ccncc3)c3ccccc23)cc1 [vatalanib] (partner dose 10 µM) | 75.9 | 68.6 | 76.2 | 93.1 | 89.4 | 32.5 | 43.2 | 70.6 | 52.6 | 29.5 | 75.7 | 90.8 | 104 | 45.5 | 56 | 58.4 | 98 | 49.8 | 44 | 92.7
C[C@@H](N)c1ccc(C(=O)Nc2ccnc3[nH]ccc23)cc1 + O=C(CCCCCCC(=O)Nc1ccccc1)NO [vorinostat] (partner dose 0.4 µM) | 70.1 | 88.7 | 104 | 85.2 | 79.9 | 85.1 | 48.3 | 74.8 | 60.2 | 45.2 | 32.5 | 73.9 | 78.3 | 56.2 | 46.1 | 67.1 | 91.8 | 24 | 68.2 | 90.6
C[C@@H](N)c1ccc(C(=O)Nc2ccnc3[nH]ccc23)cc1 + Cc1ccc(NC(=O)c2cccc(N(C)C)c2)cc1NC(=O)c1ccc(O)cc1 [ZM336372] (partner dose 10 µM) | 86.2 | 90 | 85.4 | 101 | 88.4 | 72.3 | 53.6 | 99 | 60.1 | 68.5 | 80.2 | 98.5 | 81.1 | 62.9 | 65.7 | 84.8 | 84.5 | 68.3 | 59.8 | 84.8
Cn1sc(=O)n(Cc2ccccc2)c1=O + CCCCCCCCc1ccc(CCC(N)(CO)CO)cc1 [fingolimod] (partner dose 10 µM) | 2.12 | 28.2 | 15.8 | 0.419 | 12.9 | 14 | 1.73 | 14.3 | 1.86 | 5.4 | 1.25 | 0.392 | 13.5 | 48.5 | 71 | 13.3 | 8.36 | 47.1 | 1.38 | 50.4
CCCCCCCCCCCCCCCCCCOP(=O)([O-])OC1CC[N+](C)(C)CC1 [Perifosine] + O=C(O)[C@@H]1[O][Sb](=[O])([O][Sb]2(=[O])[O][C@H]([C@H](O)CO)[C@H](O)[C@H](C(=O)O)[O]2)[O][C@H]([C@H](O)CO)[C@@H]1O [stibogluconate] (partner dose 10 µM) | 121 | 93 | 104 | 111 | 88.3 | 107 | 102 | 91.9 | 95.7 | 101 | 42.5 | 114 | 93 | 106 | 122 | 91.2 | 98.3 | 118 | 122 | 82.3
Cn1sc(=O)n(Cc2ccccc2)c1=O + OCCn1cc(-c2cnc3nnn(Cc4ccc5ncccc5c4)c3n2)cn1 [PF04217903] (partner dose 5 µM) | 78.3 | 108 | 91.7 | 100 | 94.6 | 99.2 | 95.5 | 99.8 | 61.5 | 119 | 131 | 87.7 | 69.1 | 92.4 | 92.9 | 90.1 | 99.1 | 100 | 89.5 | 102
Cn1sc(=O)n(Cc2ccccc2)c1=O + CN(NC(=O)CC(=O)NN(C)C(=S)c1ccccc1)C(=S)c1ccccc1 [STA4783] (partner dose 0.03 µM) | 30.5 | 90.2 | 22.9 | 33.9 | 56.4 | 95.2 | 94.8 | 24.6 | 83.5 | 63.6 | 33.4 | 89.4 | 121 | 80.2 | 119 | 69.5 | 46.2 | 82.4 | 48.1 | 105
Cn1sc(=O)n(Cc2ccccc2)c1=O + Cn1c(Nc2ccc(C(F)(F)F)cc2)nc2cc(Oc3ccnc(-c4ncc(C(F)(F)F)[nH]4)c3)ccc21 [CHIR265] (partner dose 0.4 µM) | 28.3 | 43.9 | 81.6 | 42.8 | 85.5 | 58.3 | 62.5 | 71.1 | 37.1 | 57 | 30.3 | 54.7 | 73.5 | 34.2 | 70.7 | 40.2 | 34.7 | 70.4 | 62.1 | 45.3
CCCCCCCCCCCCCCCCCCOP(=O)([O-])OC1CC[N+](C)(C)CC1 [Perifosine] + Nc1ccn([C@@H]2O[C@H](CO)[C@@H](O)C2(F)F)c(=O)n1 [gemcitabine] (partner dose 0.002 µM) | 44.7 | 46.1 | 39.7 | 56.3 | 52.7 | 64.5 | 78.8 | 48.4 | 18.7 | 63.8 | 61.6 | 83.9 | 71.2 | 93 | 105 | 75.1 | 71.7 | 59.7 | 52.8 | 72.1
